The other results are listed elsewhere or left out.
How the values were obtained:
HSkMC = human skeletal muscle cells; assay: cytotoxicity call (relative viability < 0.9); settings: 10 µM
HepG2 = assay: cytotoxicity call (relative viability < 0.9); settings: 10 µM
S. aureus RN4220 = assay: growth inhibition call (relative growth <= 0.2); settings: 50 µM

N=C(N)NCCC(=O)O
inactive: cytotoxicity call (HSkMC) | cytotoxicity call (HepG2) | growth inhibition call (S. aureus RN4220)

C[C@@H]1CN([C@H](C)CO)S(=O)(=O)c2ccc(Br)cc2O[C@H]1CN(C)CC1CCOCC1
inactive: cytotoxicity call (HSkMC) | cytotoxicity call (HepG2) | growth inhibition call (S. aureus RN4220)

O=C(CCCCCNC(=O)OCc1ccc(CO[C@H]2C[C@@H](c3ccc(C(F)(F)F)cc3)C=C(C(=O)N3CCN(Cc4ccc5c(c4)OCO5)CC3)O2)cc1)NO
inactive: cytotoxicity call (HSkMC) | cytotoxicity call (HepG2) | growth inhibition call (S. aureus RN4220)

COc1ccc(OC)c([C@@H](O)CNC(=O)CN)c1
inactive: cytotoxicity call (HSkMC) | cytotoxicity call (HepG2) | growth inhibition call (S. aureus RN4220)

C[C@@H]1CN([C@H](C)CO)C(=O)c2cc(NC(=O)CCCN(C)C)ccc2O[C@@H]1CN(C)Cc1ccc(C(=O)O)cc1
inactive: cytotoxicity call (HSkMC) | cytotoxicity call (HepG2) | growth inhibition call (S. aureus RN4220)

COCC#Cc1ccc([C@H]2[C@H](CO)N3C(=O)CN(C(=O)c4ccncc4)C[C@@H]23)cc1
inactive: cytotoxicity call (HSkMC) | cytotoxicity call (HepG2) | growth inhibition call (S. aureus RN4220)

C[C@H]1CN([C@@H](C)CO)C(=O)Cc2cc(NS(C)(=O)=O)ccc2O[C@@H]1CN(C)Cc1ccc(C(F)(F)F)cc1
inactive: cytotoxicity call (HSkMC) | cytotoxicity call (HepG2) | growth inhibition call (S. aureus RN4220)

O=C(C[C@H]1C[C@H]2c3cc(NS(=O)(=O)c4ccc(F)cc4)ccc3O[C@H]2[C@@H](CO)O1)N1CCCCC1
inactive: cytotoxicity call (HSkMC) | cytotoxicity call (HepG2) | growth inhibition call (S. aureus RN4220)

CC(C)(C)[S@@](=O)N1Cc2cc(C(=O)NC3CCCCC3)nc(-c3cccc(Br)c3)c2[C@H]1CCO
inactive: cytotoxicity call (HSkMC) | cytotoxicity call (HepG2) | growth inhibition call (S. aureus RN4220)

Cc1ccc(C(N)=O)cc1N
inactive: cytotoxicity call (HSkMC) | cytotoxicity call (HepG2) | growth inhibition call (S. aureus RN4220)

COc1cccc(OCc2ccc(Cn3nc(NC(=O)NCc4ccccc4OC)c4ccccc43)cc2)c1
inactive: cytotoxicity call (HSkMC) | cytotoxicity call (HepG2) | growth inhibition call (S. aureus RN4220)

COc1ccc(S(=O)(=O)N(C)C[C@H]2Oc3c(NS(=O)(=O)c4ccc(F)cc4)cccc3C(=O)N([C@H](C)CO)C[C@@H]2C)cc1
inactive: cytotoxicity call (HSkMC) | cytotoxicity call (HepG2) | growth inhibition call (S. aureus RN4220)

COc1ccc(NC(=O)Nc2ccc3c(c2)CC(=O)N([C@H](C)CO)C[C@@H](C)[C@@H](CN(C)S(C)(=O)=O)O3)cc1
inactive: cytotoxicity call (HSkMC) | cytotoxicity call (HepG2) | growth inhibition call (S. aureus RN4220)
